Measurements as given in paper PMC6919601, “Identification of Plasmodium dipeptidyl aminopeptidase allosteric inhibitors by high throughput screening” (PLoS ONE, 2019).
Among all 110,000 compounds or so, about 230 (0.21%) showed an effect of 50% or more. Some of the results follow.

molecular target: DPAP1 (Plasmodium falciparum, UniProt Q8IIJ9); experiment: primary screen, percent inhibition; read by cleavage of a fluorogenic dipeptide substrate; higher = more effect of the substance; design: species or system P. falciparum D10 trophozoite lysates; single well
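Note: 30 min substrate incubation versus DMSO and 10 µM JCP410 controls.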

Chain of DPAP1 (Q8IIJ9 whole entry, looked up): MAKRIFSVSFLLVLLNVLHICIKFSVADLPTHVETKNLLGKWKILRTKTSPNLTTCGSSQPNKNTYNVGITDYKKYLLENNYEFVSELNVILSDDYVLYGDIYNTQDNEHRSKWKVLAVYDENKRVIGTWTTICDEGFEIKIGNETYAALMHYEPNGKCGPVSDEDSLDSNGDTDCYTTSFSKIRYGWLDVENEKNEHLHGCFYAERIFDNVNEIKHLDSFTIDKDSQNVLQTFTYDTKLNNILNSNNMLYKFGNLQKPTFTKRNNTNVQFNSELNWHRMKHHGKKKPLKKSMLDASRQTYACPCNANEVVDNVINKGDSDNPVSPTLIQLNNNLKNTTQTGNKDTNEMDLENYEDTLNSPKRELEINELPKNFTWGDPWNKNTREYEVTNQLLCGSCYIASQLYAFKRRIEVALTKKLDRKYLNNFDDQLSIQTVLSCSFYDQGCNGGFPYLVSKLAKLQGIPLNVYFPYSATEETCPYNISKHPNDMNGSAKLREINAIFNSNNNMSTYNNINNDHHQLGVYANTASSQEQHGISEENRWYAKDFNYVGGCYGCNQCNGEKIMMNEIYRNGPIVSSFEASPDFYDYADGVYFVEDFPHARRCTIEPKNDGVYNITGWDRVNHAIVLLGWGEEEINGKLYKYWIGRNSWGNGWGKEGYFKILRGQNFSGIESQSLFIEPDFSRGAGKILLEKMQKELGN

SMILES | % Inhibition @ 10 uM [%]
Cc1c(C(=O)NCc2ccccc2Br)cc(-c2ccccc2)n1C | 1.68
O=C(c1ccc(F)cc1)N1CCC(N2CCCCCC2)CC1 | -3.33
CC(C)CC(C(=O)NCC#N)c1cccc(-c2csc(N3CCNCC3)n2)c1 (centres unmarked) | 4.63
O=C(NCCSc1c[nH]c2ccccc12)c1ccc(S(=O)(=O)N2CCCCC2)cc1 | -0.228
O=C(O)c1ccccc1C(=O)N1CCN(c2ccccc2)CC1 | 0.956
Nc1ncnc2c1nc(S(=O)(=O)O)n2Cc1ccccc1 | -1.69
COc1cc(OC)c(OC)cc1/C=C1/NC(=O)NC1=O | 3.6
CCCn1c(CCC(=O)NC2CCCCCC2)nc2cccnc21 | -6.67
CC(C)c1c(C#N)c(N)nc(SCC(=O)c2ccc(Cl)c(Cl)c2)c1C#N | -4.26
CCOC(=O)c1nnc(-c2ccccc2)o1 | -3.34
Cc1ccc(OCC(=O)NC2CCCC2)cc1 | -2.27
Cc1cccc(Oc2coc3cc(OCC(=O)N4CCCCC4)ccc3c2=O)c1 | 3.27
Cc1cc(C)n(C(=O)c2ccncc2)n1 | -3.33
COc1cc(/C=C/C(=O)O)cc(S(=O)(=O)N2CCOCC2)c1OC | 3.06
N#CC1=C(N)Oc2[nH]nc(-c3ccc(F)cc3)c2C1c1c[nH]nc1-c1ccc(F)cc1 (centres unmarked) | 0.777
C=CCOc1ccc(C2C(C#N)=C(N)OC3=C2C(=O)CC(C)(C)C3)cc1 (centres unmarked) | -0.99
CCOc1ccc(C2CC(=O)NC3=C2C(=O)CCC3)cc1Cl (centres unmarked) | -1.29
Cc1cc(C)c(-c2c(O)c3cccc4c3n(c2=O)CCC4)c(C)c1 | -4.67
O=C(c1cc2nc(-c3ccc4c(c3)OCO4)cc(C(F)(F)F)n2n1)N1CCCCC1 | 2.25
O=C(c1cc(-c2ccccc2)c(N2CCOCC2)s1)N1CCCC1 | -3.34
CCCc1cc(O)n2nc(SC)nc2n1 | -2.91
CC(C)c1ccc(OCCOCCN2CCNCC2)cc1 | -3.53
CCCCC(=O)Nc1cccc(NC(=O)CCCC)n1 | 2.7
CC1CN(c2nc3c(c(=O)n(C)c(=O)n3C)n2C)CC(C)O1 (centres unmarked) | 1.9
Cc1ccc(C)c(NS(=O)(=O)Cc2ccccc2)c1 | -0.446
COc1ccccc1C(=O)NC(C)c1ccc2c(c1)OCO2 (centres unmarked) | -5.81

SMILES | % Inhibition @ 10 uM [%]
OC1(c2ccc(Cl)cc2)CCN(Cc2ccc(F)c(F)c2)CC1 | -7.42
Cc1ccc(C(=O)NCc2nc(-c3ccccc3)no2)cc1C | -2.99
CC(NS(=O)(=O)c1ccc(OCC(=O)Nc2c(F)cccc2F)cc1)c1ccccc1 (centres unmarked) | -6.25
COc1ccc(N(CC(=O)NC(C)(C)C)S(C)(=O)=O)cc1Cl | 3.17
CSc1nc(Oc2ccc(F)cc2)cc(-n2ncc(C#N)c2N)n1 | 1.82
CC1(C)CC2=Nc3ccccc3N(C(=O)Cc3ccccc3)C(c3ccco3)C2=C(O)C1 (centres unmarked) | 0.0538
COc1ccc(C2=NN(CC(=O)NCCN(C)CCc3ccccc3)C(=O)CC2)cc1 | 3.24
COCCNC(=O)C(C)n1nc(C)c2sc3ccccc3c2c1=O (centres unmarked) | -4.93
Cc1ccc(Cc2nc(O)c3nnn(Cn4nnc(-c5ccccc5)n4)c3n2)cc1 | -5.08
N#CCNC(=O)[C@@H](CCc1cccc(F)c1)NC(=O)OCc1ccccc1 | -6.56
CC1=C(C#N)C(c2ccccc2C(F)(F)F)C2=C(O)CC(C)(C)CC2=N1 (centres unmarked) | -0.711
CCOc1ccc(CCNC(=O)CCn2ccc3cc(S(=O)(=O)N4CCCC4)ccc32)cc1 | -4.77
CC(C)Cc1cc(C(=O)NCc2ccccc2)no1 | -5.77
CC1(C)CC(=O)C2=C(C1)N(c1cccnc1)C(N)=C(C#N)C2c1ccc(Cl)cc1 (centres unmarked) | 3.62
Cc1ccc(S(=O)(=O)N2CCOCC2)cc1C(=O)Nc1cccnc1 | 1.26
Cc1ccccc1N1C(=O)C2C3C=CC(C3=C3CCCC3)C2C1=O (centres unmarked) | -2.07
O=C1C(Cl)=C(NCC2CCCO2)C(=O)N1C1CCCCC1 (centres unmarked) | 3.25
CC1CC(C)CN(C(=O)c2cccc3c2SCCC3=O)C1 (centres unmarked) | -0.788
COc1ccc(Cc2nnc(NC(=O)C3c4ccccc4Oc4ccccc43)s2)cc1 | 0.279
CCN(CC)CCCN1C(=O)C(O)=C(C(=O)c2cc3ccccc3o2)C1c1ccc(C(=O)OC)cc1 (centres unmarked) | -5
Cc1ccc(NC(=O)C2CC(O)CN2C(=O)OC(C)(C)C)cc1 (centres unmarked) | 3.24
CCCn1c(SCc2nc(-c3cccs3)no2)nnc1-c1ccncc1 | 4.47
COc1cccc(NC(=O)c2ccc3ccccc3c2)c1 | -2.36
CN(C)c1ccc(Cc2c(NC=O)ccc3ccccc23)cc1 | 2.22
N#Cc1cnc(SCc2cc(=O)n3ccccc3n2)nc1N | -5.64
CC1CN(c2sc(S(C)(=O)=O)nc2S(=O)(=O)c2ccc(Cl)cc2)CC(C)O1 (centres unmarked) | -2.25

SMILES | % Inhibition @ 10 uM [%]
COc1cc2c(cc1OC)C(C(=O)NC(C)CCc1ccccc1)C1c3ccccc3CCN1C2=O (centres unmarked) | -8.09
O=C(c1ccccc1Cl)N1CCN(c2ccc([N+](=O)[O-])cc2)CC1 | -0.127
CCOC(=O)Nc1ccc2c(c1)Nc1ccccc1CC2 | -4.49
CC1CCN(c2nc3ccc(C(=O)NCc4cccc(Br)c4)cc3s2)CC1 | 0.0882
CN1CCN(C(=O)CN2C(=O)c3cccc4cccc2c34)CC1 | 2.48
COc1ccc(NC(=O)c2ccc(N3C(=O)C4C5C=CC(C5)C4C3=O)cc2)cc1 (centres unmarked) | -0.231
CC1(C)CC(=O)C(/C=N/CC2CCN(C(=O)Cc3ccc(Cl)cc3)CC2)=C(O)C1 | -1.59
C=CCOc1ccc(C(=O)C2=C(O)C(=O)N(CCN(CC)CC)C2c2ccccc2F)c(C)c1 (centres unmarked) | 4.54
CC(C)(C)NC(=O)c1ccc(-n2nc(C(F)(F)F)c3c2-c2ccoc2CC3)cc1 | 2.31
O=C1N=C(c2ccccc2)C(c2ccccc2)N1 (centres unmarked) | -1.77
Cc1ccc(NC(=O)c2sc3nc(-c4ccncc4)ccc3c2N)cc1Cl | 3.5
O=C(NCCC1=CCCCC1)C1CCN(c2ncnc3c2sc2cccc(F)c23)CC1 | 1.03
Cc1oc(-c2cccs2)nc1CS(=O)CC(=O)NCc1ccc2c(c1)OCO2 (centres unmarked) | 3.19
Cc1[nH]c2ccccc2c1C(c1ccncc1)N1CCCC1 (centres unmarked) | -2.92
CC(=O)Nc1ccc(C(=O)N(C)C(C(=O)Nc2ccc(C)cc2)c2ccccn2)cc1 (centres unmarked) | 3.65
Fc1ccccc1CCNC1CCN(Cc2ccccc2)CC1 | -0.0908
COCCCNC(=O)CSc1nc2ccsc2c(=O)n1CCCCCC(=O)O | 3.54
O=C(CC1SC(=O)N(Cc2cccc3ccccc23)C1=O)Nc1nccs1 (centres unmarked) | -2.82
N#C/C(=C\c1ccc(Cl)cc1)c1nc(-c2ccc(Cl)cc2)cs1 | -2.51
CC(C)N(C(=O)c1ccc(C(=O)NCc2ccccc2)cc1)C(C)C | -6.17
CC(=O)Nc1nc(C)c(-c2csc(Nc3cccc(O)c3)n2)s1 | 3.65
COC(=O)c1cc(C23CC4CC(CC(C4)C2)C3)oc1CNCc1ccccc1 | -3.75
O=C(NC1CCC(NC(=O)c2cnccn2)CC1)c1cnccn1 (centres unmarked) | 1.28
O=C(C1CC2CCC1C2)N1CCCN(C(=O)C2CC3CCC2C3)CC1 (centres unmarked) | -4.16
COC(=O)c1ccc(-n2nnnc2SCCCC(=O)c2ccc(F)cc2)cc1 | -3.64
Cc1ccc(C(N)=O)cc1S(=O)(=O)N1CCCCC1 | -1.48

SMILES | % Inhibition @ 10 uM [%]
Cc1ccc(CNC(=O)CCCn2c(=O)c3sccc3n(CC(=O)c3ccc(F)cc3)c2=O)cc1 | 15.1
COc1ccc(-c2ccc(C(C)=O)s2)cc1 | 0.709
COc1ccc(N2C(=O)Cc3ccccc3C2=O)cc1 | -6.67
COc1ccc(CN2CSC3=C(C#N)C(c4cccs4)CC(=O)N3C2)cc1 (centres unmarked) | 50.8
O=c1[nH]nc(SCc2ccccc2)c(=S)[nH]1 | -0.0267
Cc1cc(O)c(C2=NCCSC(c3ccccc3O)C2)c(=O)o1 (centres unmarked) | 4.54
COCCOC(=O)c1c(C)n(Cc2ccccc2F)c2c1cc(O)c1ccccc12 | 1.76
CCCCCCOc1ccc(CNCCCOCC)cc1 | 5.23
Brc1ccc(OCCN2CCOCC2)cc1 | -11.4
O=C1CCCCCN1CP(=O)(O)CN1CCCCC1 | 0.219
O=C(O)CCP(=O)(O)CN1CCCCC1 | -2.77
Cn1c(CC(=O)c2ccc(F)cc2)nccc1=O | -7.94
CCOC(=O)c1c(C)n(Cc2ccco2)c2cc(-c3ccc(F)cc3)c(O)cc12 | 6.96
O=C(O)c1cccc(NS(=O)(=O)c2cccc(C(=O)Nc3ccccc3)c2)c1 | -0.0217
CC(=O)Nc1ccc(C(=O)Nc2ccc(CC(=O)O)cc2)cc1 | 3.29
O=C(COc1ccc(Cl)cc1Cl)Nc1ccccc1Cl | 4.22
Cc1ccc(CN(CC(=O)NC2CCCC2)S(=O)(=O)c2ccccc2)cc1 | 3.89
Cc1cccc(NS(=O)(=O)c2ccc(F)cc2)c1 | -5.32
CC1(C)CC2=Nc3ccccc3NC(c3ccc(F)cc3)C2=C(O)C1 (centres unmarked) | -6.34
CCN(CC)CCNC(=O)C1CCCN(c2nnc(-n3cccc3)s2)C1 (centres unmarked) | 1.15
COc1ccc(Cl)cc1NC(=O)c1cccc(C)c1 | -2.6
CCOc1ccccc1NC(=O)c1ccccc1[N+](=O)[O-] | -6.12
CCc1ccccc1NC(=O)CN(c1ccc(Cl)cc1C)S(C)(=O)=O | -1.43
